Assay results taken from the supplement of paper PMC8728848.
The list shows a part of the results.

Key:
Experiment in all cases: glycan array binding signal (z-score within array); higher = stronger binding
Details in all cases: glycan notation: IUPAC condensed, linker removed
[1] = molecular target: Fuc(a1-2)Gal(b1-4)GlcNAc(b1-3)Gal(b1-4)GlcNAc(b1-3)Gal(b1-4)GlcNAc
Method in brief: (§1)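 Glycan array data came from 3228 arrays in the Consortium for Functional Glycomics database, and only arrays with an available protein sequence were kept. Glycan names were put into IUPAC-condensed notation, and columns mapping to the same glycan were averaged. The binding signal is a within-array Z-score, averaged across arrays of one protein sequence run at different concentrations or buffers and across linkers. A negative Z-score can be read as non-binding.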

[2] = molecular target: Fuc(a1-2)Gal(b1-4)GlcNAc(b1-3)GalNAc
Method in brief: as §1

[3] = molecular target: Fuc(a1-2)Gal(b1-4)GlcNAc(b1-3)[Fuc(a1-2)Gal(b1-4)GlcNAc(b1-6)]GalNAc
Method in brief: as §1

[4] = molecular target: Fuc(a1-2)Gal(b1-4)GlcNAc(b1-3)[Fuc(a1-3)[Gal(b1-4)]GlcNAc(b1-6)]Gal(b1-4)Glc
Method in brief: as §1

[5] = molecular target: Fuc(a1-2)Gal(b1-4)GlcNAc(b1-6)GalNAc
Method in brief: as §1

[6] = molecular target: Fuc(a1-2)Gal(b1-4)GlcNAc6S
Method in brief: as §1

[7] = molecular target: Fuc(a1-2)Gal(b1-4)[Fuc(a1-3)]GlcNAc
Method in brief: as §1

[8] = molecular target: Fuc(a1-2)Gal(b1-4)[Fuc(a1-3)]GlcNAc(b1-2)Man(a1-3)[Fuc(a1-2)Gal(b1-4)[Fuc(a1-3)]GlcNAc(b1-2)Man(a1-6)]Man(b1-4)GlcNAc(b1-4)[Fuc(a1-6)]GlcNAc
Method in brief: as §1

[9] = molecular target: Fuc(a1-2)Gal(b1-4)[Fuc(a1-3)]GlcNAc(b1-2)[Fuc(a1-2)Gal(b1-4)[Fuc(a1-3)]GlcNAc(b1-4)]Man(a1-3)[Fuc(a1-2)Gal(b1-4)[Fuc(a1-3)]GlcNAc(b1-2)Man(a1-6)]Man(b1-4)GlcNAc(b1-4)GlcNAc
Method in brief: as §1

[10] = molecular target: Fuc(a1-2)Gal(b1-4)[Fuc(a1-3)]GlcNAc(b1-3)Gal(b1-4)[Fuc(a1-3)]GlcNAc
Method in brief: as §1

[11] = molecular target: Fuc(a1-2)Gal(b1-4)[Fuc(a1-3)]GlcNAc(b1-3)Gal(b1-4)[Fuc(a1-3)]GlcNAc(b1-3)Gal(b1-4)[Fuc(a1-3)]GlcNAc
Method in brief: as §1

[12] = molecular target: Fuc(a1-2)Gal(b1-4)[Fuc(a1-3)]GlcNAc(b1-3)GalNAc
Method in brief: as §1

[13] = molecular target: Fuc(a1-2)Gal(b1-4)[Fuc(a1-3)]GlcNAc(b1-3)[Neu5Ac(a2-6)Gal(b1-4)GlcNAc(b1-6)]Gal(b1-4)Glc
Method in brief: as §1

[14] = molecular target: Fuc(a1-2)Gal3S(b1-4)GlcNAc
Method in brief: as §1

[15] = molecular target: Fuc(a1-2)Gal6S(b1-3)GlcNAc
Method in brief: as §1

[16] = molecular target: Fuc(a1-2)Gal6S(b1-3)GlcNAc6S
Method in brief: as §1

Fuc(a1-2)Gal6S(b1-4)Glc = molecular target: Fuc(a1-2)Gal6S(b1-4)Glc
Method in brief: as §1

[17] = molecular target: Fuc(a1-2)Gal6S(b1-4)Glc6S
Method in brief: as §1

Fuc(a1-2)[Gal(a1-3)]Gal = molecular target: Fuc(a1-2)[Gal(a1-3)]Gal
Method in brief: as §1

[18] = molecular target: Fuc(a1-2)[Gal(a1-3)]Gal(b1-3)GalNAc
Method in brief: as §1

[19] = molecular target: Fuc(a1-2)[Gal(a1-3)]Gal(b1-3)GalNAc(b1-3)Gal(a1-4)Gal(b1-4)Glc
Method in brief: as §1

[20] = molecular target: Fuc(a1-2)[Gal(a1-3)]Gal(b1-3)GlcNAc
Method in brief: as §1

[21] = molecular target: Fuc(a1-2)[Gal(a1-3)]Gal(b1-3)GlcNAc(b1-2)Man(a1-3)[Fuc(a1-2)[Gal(a1-3)]Gal(b1-3)GlcNAc(b1-2)Man(a1-6)]Man(b1-4)GlcNAc(b1-4)GlcNAc
Method in brief: as §1

[22] = molecular target: Fuc(a1-2)[Gal(a1-3)]Gal(b1-3)GlcNAc(b1-2)Man(a1-3)[Fuc(a1-2)[Gal(a1-3)]Gal(b1-3)GlcNAc(b1-2)Man(a1-6)]Man(b1-4)GlcNAc(b1-4)[Fuc(a1-6)]GlcNAc
Method in brief: as §1

[23] = molecular target: Fuc(a1-2)[Gal(a1-3)]Gal(b1-3)GlcNAc(b1-3)GalNAc
Method in brief: as §1

[24] = molecular target: Fuc(a1-2)[Gal(a1-3)]Gal(b1-3)GlcNAc(b1-6)GalNAc
Method in brief: as §1

[25] = molecular target: Fuc(a1-2)[Gal(a1-3)]Gal(b1-4)Glc
Method in brief: as §1

[26] = molecular target: Fuc(a1-2)[Gal(a1-3)]Gal(b1-4)GlcNAc
Method in brief: as §1

[27] = molecular target: Fuc(a1-2)[Gal(a1-3)]Gal(b1-4)GlcNAc(b1-2)Man
Method in brief: as §1

[28] = molecular target: Fuc(a1-2)[Gal(a1-3)]Gal(b1-4)GlcNAc(b1-2)Man(a1-3)[Fuc(a1-2)[Gal(a1-3)]Gal(b1-4)GlcNAc(b1-2)Man(a1-6)]Man(b1-4)GlcNAc(b1-4)GlcNAc
Method in brief: as §1

B1: PX15618B-bfa-464-25-464 (Bacteroides fragilis) (protein)
chain: DQEPPLYVNENDIFTSPTRIEATLNGLYAAIKNTGTKSLMGGKSYLVFDNRGDDVINISNNLVTLFNTYNMNVGITDAENADTWTYAYLAINKVNTFLQSLEGAREVAGENYDRYVQEAKFVRALAYYYLNNLYPTPYSVNPDAKSVPLRLTAEAGTENNNMPRSTVKQIYEHILSDLENISALDTEVNTYTGVTHATQAAANMLKMRVYMAMNEWDKAITAGELVTGYSLPEDVTLIYKAPYFSQESIFSLPMADTNIPNTQQSLAEYYYDGKIMLIDTKSGIMSKPDYSLATDKRIIAFKGEKDLLMKFTDAKTKLQWVPIFRYAETLLDLAECYANKAGGEATAKSLLKQVRGRSVDAATDPLNIDNLSGDALKEAIYNEKRLEFIGEGIRGIDIMRRGEHFIKVGENETINVGPSDEKYTWPIPQVELLLNKDINK
glycan array binding signal (z-score) [1]: 0.251
glycan array binding signal (z-score) [2]: -0.586
glycan array binding signal (z-score) [3]: -0.077
glycan array binding signal (z-score) [4]: 0.969
glycan array binding signal (z-score) [5]: -0.614
glycan array binding signal (z-score) [6]: -0.396
glycan array binding signal (z-score) [7]: -0.251
glycan array binding signal (z-score) [8]: 0.793
glycan array binding signal (z-score) [9]: 4.25
glycan array binding signal (z-score) [10]: 0.306
glycan array binding signal (z-score) [11]: -0.085
glycan array binding signal (z-score) [12]: -0.338
glycan array binding signal (z-score) [13]: -0.095
glycan array binding signal (z-score) [14]: -0.514
glycan array binding signal (z-score) [15]: -0.718
glycan array binding signal (z-score) [16]: -0.134
glycan array binding signal (z-score) (Fuc(a1-2)Gal6S(b1-4)Glc): -0.446
glycan array binding signal (z-score) [17]: -0.329
glycan array binding signal (z-score) (Fuc(a1-2)[Gal(a1-3)]Gal): 0.473
glycan array binding signal (z-score) [18]: 0.234
glycan array binding signal (z-score) [19]: 0.194
glycan array binding signal (z-score) [20]: -0.436
glycan array binding signal (z-score) [21]: -0.235
glycan array binding signal (z-score) [22]: 0.14
glycan array binding signal (z-score) [23]: -0.254
glycan array binding signal (z-score) [24]: 0.041
glycan array binding signal (z-score) [25]: 0.219
glycan array binding signal (z-score) [26]: 0.138
glycan array binding signal (z-score) [27]: -0.671
glycan array binding signal (z-score) [28]: 1.41
